Results from PubChem BioAssay AID759 (NMMLSC, 2007).
The campaign covered roughly 190,000 compounds. About 270 (0.14%) were called active. The shares of active, inactive and inconclusive entries below differ from those in the screen.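 How the source made its calls: active means GTP binding activity at least 20% away from the 100% baseline, either lowered as inhibitor or raised as activator; inconclusive means flagged as likely green fluorescent, judged across all proteins in the well; inactive means the rest.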

molecular target: GTPase HRas (Homo sapiens) (UniProt P01112); experiment: HRas wt fluorescent GTP binding changes, either direction – biochemical, wildtype, bead-based flow cytometry, multiplex, primary screen (AID 759); settings: GST-Ras wt beads, Bodipy-FL-GTP binding, at 10 µM, actives lie on both sides;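 further: 0% = unlabeled GTP competition control and 100% = no-compound control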
Sequence of UniProt P01112 (P01112 whole entry, looked up): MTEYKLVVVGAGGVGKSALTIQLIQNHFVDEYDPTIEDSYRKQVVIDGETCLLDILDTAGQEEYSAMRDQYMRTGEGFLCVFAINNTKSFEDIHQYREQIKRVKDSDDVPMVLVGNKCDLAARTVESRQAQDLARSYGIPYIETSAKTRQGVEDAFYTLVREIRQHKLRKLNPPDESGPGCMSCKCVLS

Row | SMILES | GTP binding activity
1 | Cn1[nH]c(C(F)(F)F)cc1=O | inactive: 101%
2 | CCNS(=O)(=O)c1ccc(CCC(=O)NCCC2=CCCCC2)cc1 | inactive: 101%
3 | CC(C)c1cc(C(=O)Nc2ccc3c(c2)OCO3)no1 | inconclusive: 103%
4 | Cc1ccccc1C1(CCN2CCCCC2)CCOC(C)(C)C1 (configuration not stated) | inconclusive: 102%
5 | Cn1c2c(c(=O)n(C)c1=O)CN(CCc1ccccc1)CN2 | inconclusive: 105%
6 | COc1ccc(CCNS(=O)(=O)c2ccc3c(c2)CCN3C(=O)C2CC2)cc1OC | inconclusive: 107%
7 | C(=N\Nc1nn2cnnc2c2ccccc12)/c1ccco1 | active: 75%
8 | CCOC(=O)n1c(=O)n(C)c2ccc(Cl)cc21 | inconclusive: 98%
9 | COc1ccc(-c2nc3cc(NC(=O)Cc4ccc(OC)c(OC)c4)ccc3o2)cc1 | inconclusive: 99%
10 | N#Cc1c(-c2ccccc2)nc2n1CCS2 | inactive: 92%
11 | CC(C)n1c2ccccc2c2cc([N+](=O)[O-])ccc21 | inconclusive: 105%
12 | O=C(Nc1cnn(C23CC4CC(CC(C4)C2)C3)c1)c1cnn2cccnc12 | active: 123% [activator]
13 | CSc1ncc(CN2CCN(C(C)C)C(CCO)C2)cn1 (configuration not stated) | inactive: 98%
14 | COc1ccccc1CC(=O)NCCc1ccc(S(N)(=O)=O)cc1 | inactive: 103%
15 | Cc1sc2nc(SCC(=O)N3CCCCC3)[nH]c(=O)c2c1C | inconclusive: 102%
16 | Cc1ccc(NC(=O)/C(C#N)=C/c2cc(C)n(-c3ccc(N4CCOCC4)c([N+](=O)[O-])c3)c2C)c(C)c1 | inconclusive: 114%
17 | NNC(=O)[C@H]1C[C@@H]1c1ccccc1 | inconclusive: 103%
18 | Oc1c(CN2CCOCC2)ccc2ccccc12 | inconclusive: 112%
19 | Cc1cccc2cc(-c3ccccc3)c(-c3ccccc3)c[n+]12 | inactive: 100%
20 | COCCCNC(=O)c1cc(C(=O)c2ccccc2Br)c[nH]1 | inconclusive: 93%
21 | Cc1onc(-c2ccccc2Cl)c1C(=O)NCc1ccc(N2CCCC2=O)cc1 | inconclusive: 103%
22 | O=C(CSc1n[nH]c(=O)[nH]c1=O)N/N=C/c1ccccc1 | inconclusive: 236%
23 | CC1=C(C)[N+](=O)C2(O)CCCCC2(C)N1[O-] (configuration not stated) | inconclusive: 105%
24 | CC1Cc2ccccc2N1C(=S)NC(=O)c1ccco1 (configuration not stated) | inconclusive: 94%

Row | SMILES | GTP binding activity
25 | CCOC(=O)c1ccc(NC(=O)C2(c3ccccc3)CCOCC2)cc1 | inconclusive: 104%
26 | CN(C(=O)CSc1ncnc2scc(-c3ccccc3)c12)C1CCS(=O)(=O)C1 (configuration not stated) | inconclusive: 108%
27 | COCCCNC(=S)NCCCNc1nc2cc3c(cc2cc1C#N)OCO3 | inconclusive: 93%
28 | CCOC(=O)c1c(NC(=O)/C=C/c2ccc3c(c2)OCO3)sc(C)c1CC | inactive: 91%
29 | Cc1nn(CC(=O)c2ccc(Cl)cc2Cl)c(C)[n+]1N | inconclusive: 102%
30 | O=S(=O)(Cc1ccccc1)NCC1CCCO1 (configuration not stated) | inactive: 103%
31 | Nc1ccc(C(=O)Nc2ccc3nc(-c4ccncc4)[nH]c3c2)cc1 | inconclusive: 87%
32 | COc1ccc(C(=O)Nc2nc3nccc(-c4ccccc4)n3n2)cc1 | inactive: 97%
33 | COc1cc2[nH]c(=S)nc(NCc3cccs3)c2cc1OC | active: 63%
34 | CC(=O)Nc1cccc(NS(=O)(=O)c2cccc3nsnc23)c1 | inconclusive: 105%
35 | NC(=O)C1(N2CCCCC2)CCN(C2CC(=O)N(CCc3ccccc3)C2=O)CC1 (configuration not stated) | inconclusive: 93%
36 | O=C(Nc1nnc(CSCc2ccccc2F)s1)c1cccc([N+](=O)[O-])c1 | inconclusive: 92%
37 | CCn1cc(Br)c(C(=O)Nc2ccccc2C(=O)OC)n1 | inconclusive: 95%
38 | COc1ccc(OC)c(-c2cc(C(=O)N3CCN(c4ncccn4)CC3)c3ccccc3n2)c1 | inconclusive: 96%
39 | Cc1ccc(NC(=O)c2cccc(S(C)(=O)=O)c2)cc1 | inconclusive: 92%
40 | COc1ccc(/C=C/C(=O)Oc2cccc(/C=N/NC(=O)COc3c(C)cccc3C)c2)cc1 | inactive: 104%
41 | Nc1nn(-c2ccccc2)nc1C(=O)OCc1ccccc1F | inconclusive: 89%
42 | Cn1c(=O)n(C)c2cc(C(=O)c3ccccc3)ccc21 | inconclusive: 104%
43 | Cc1cccn2c(CN(C)CC3Cc4ccccc4O3)c(C(=O)N3CCCCC3)nc12 (configuration not stated) | inactive: 98%
44 | CC(=O)NCCNC(=O)C1CCCCN1S(=O)(=O)c1ccccc1 (configuration not stated) | inactive: 93%
45 | Cc1cc(=O)[nH]c(N/N=C/c2ccc(C)o2)n1 | inconclusive: 95%
46 | CCCn1cnc2cc(NCc3cccc(OC)c3O)ccc21 | inconclusive: 96%
47 | COC(=O)c1ccc(NC(=S)NNC(=O)c2ccccc2)cc1 | inconclusive: 89%
